Source: paper PMC4336329 (PLoS ONE, 2015)
Hit rate of the full screen: of about 310,000 compounds, about 2,200 (0.71%) showed an effect of 50% or more. The effect is printed as a negative number. The list shows a part of the results.

Biological target: human ether-à-go-go-related gene (hERG) potassium channel (human, UniProt Q12809)
Test: primary screen, population patch clamp on CHO cells stably expressing hERG

Chain of human ether-à-go-go-related gene (hERG) potassium channel (Q12809 whole entry, looked up): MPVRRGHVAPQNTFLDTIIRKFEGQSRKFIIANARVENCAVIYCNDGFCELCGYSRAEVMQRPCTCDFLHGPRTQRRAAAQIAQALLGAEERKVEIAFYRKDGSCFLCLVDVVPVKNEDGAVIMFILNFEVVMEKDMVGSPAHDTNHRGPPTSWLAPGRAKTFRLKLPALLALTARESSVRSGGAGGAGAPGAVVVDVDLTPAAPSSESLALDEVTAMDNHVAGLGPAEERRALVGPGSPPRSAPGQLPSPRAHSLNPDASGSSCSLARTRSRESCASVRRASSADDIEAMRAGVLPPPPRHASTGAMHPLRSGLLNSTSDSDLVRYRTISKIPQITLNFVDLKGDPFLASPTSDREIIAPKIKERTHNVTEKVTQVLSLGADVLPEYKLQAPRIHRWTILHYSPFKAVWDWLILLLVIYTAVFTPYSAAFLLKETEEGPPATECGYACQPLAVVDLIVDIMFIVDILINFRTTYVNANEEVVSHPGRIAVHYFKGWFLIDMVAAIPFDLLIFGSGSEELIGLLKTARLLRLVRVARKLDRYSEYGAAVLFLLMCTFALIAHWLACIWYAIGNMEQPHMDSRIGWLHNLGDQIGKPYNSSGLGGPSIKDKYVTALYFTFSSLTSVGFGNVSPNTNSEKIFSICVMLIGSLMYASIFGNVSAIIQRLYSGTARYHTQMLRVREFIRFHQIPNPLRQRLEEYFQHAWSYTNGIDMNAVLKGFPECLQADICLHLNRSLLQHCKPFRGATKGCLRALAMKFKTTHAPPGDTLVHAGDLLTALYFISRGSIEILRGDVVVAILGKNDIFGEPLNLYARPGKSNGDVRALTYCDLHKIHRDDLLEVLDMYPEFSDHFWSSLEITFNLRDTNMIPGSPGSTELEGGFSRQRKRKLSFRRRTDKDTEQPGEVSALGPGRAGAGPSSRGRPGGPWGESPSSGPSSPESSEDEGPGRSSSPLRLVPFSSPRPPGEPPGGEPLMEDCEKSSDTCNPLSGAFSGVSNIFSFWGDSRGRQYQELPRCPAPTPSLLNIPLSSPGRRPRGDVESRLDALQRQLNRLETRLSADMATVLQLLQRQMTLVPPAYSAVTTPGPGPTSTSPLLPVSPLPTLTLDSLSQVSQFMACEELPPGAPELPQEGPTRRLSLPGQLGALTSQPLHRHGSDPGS

Going from `O=C(O)c1ccc(Nc2nc3ccccc3nc2NS(=O)(=O)c2cccs2)cc1` to `Cc1cccc(S(=O)(=O)N2CN(Cc3ccco3)c3nc4ccccc4nc32)c1`, the “hERG current change (%, negative = inhibition) at 1uM” value falls from 10.4% to 4.44%.

Compared with `CC(C)(CO)NC(=O)CC1C(=O)NCCN1Cc1ccc(-c2ccccc2)cc1` (centres unmarked), `CC(=O)C1=C(c2ccccc2)NC(=O)NC1c1ccc(O)c(O)c1` (centres unmarked) is lower in “hERG current change (%, negative = inhibition) at 1uM” value: 10.9% for the first, 6.85% for the second.

Going from `O=C(CN1C(=O)NC2(CCOc3ccccc32)C1=O)NCc1ccc(F)cc1` (centres unmarked) to `CCC1(c2ccccc2)NC(=O)N(CC(=O)N(C)Cc2c(F)cccc2Cl)C1=O` (centres unmarked), the “hERG current change (%, negative = inhibition) at 1uM” value rises from 2.09% to 7.96%.

Compared with `Cc1cccc(OCCC(=O)Nc2nnc(C)s2)c1`, `C=CCSc1nnc(NC(=O)CSc2nc3ccccc3[nH]2)s1` is higher in “hERG current change (%, negative = inhibition) at 1uM” value: 7.86% for the first, 11.8% for the second.

Going from `Cc1csc(SCC(=O)Nc2ccc(Cl)cn2)n1` to `Cc1cc(NC(=O)CSc2nc(=O)n3cc(Cl)ccc3n2)no1`, the “hERG current change (%, negative = inhibition) at 1uM” value falls from 9.06% to 8.14%.

Compared with `CC(C)(C)Nc1cccccc1=O`, `CCN1C(=O)c2cccc3c(NC(=O)C(C)(C)C)ccc1c23` is higher in “hERG current change (%, negative = inhibition) at 1uM” value: 11% for the first, 13.1% for the second.

Going from `Cn1c(=O)c2c(nc(NCc3ccccc3)n2CC(N)=O)n(C)c1=O` to `CC(=O)N(C)C1=C(O)c2ccccc2C(=O)C1=O`, the “hERG current change (%, negative = inhibition) at 1uM” value rises from 15.8% to 18%.

Going from `C=CCn1c(CSCc2ccc(Cl)cc2)nnc1SCC(=O)NCc1ccccc1` to `CN(CC(=O)NCc1ccncc1)S(=O)(=O)c1ccc2ccccc2c1`, the “hERG current change (%, negative = inhibition) at 1uM” value rises from -14.8% to 2.12%.

Going from `CN(C)C(=S)SCC(=O)Nc1cccc(C(F)(F)F)c1` to `Cc1ccc(NC(=O)COC(=O)/C=C/c2ccc(Br)o2)cc1S(=O)(=O)N(C)C`, the “hERG current change (%, negative = inhibition) at 1uM” value rises from -23.4% to 12.1%.

Compared with `CCOC(=O)C1(CCOc2ccccc2)CCN(C(C)CSC)CC1` (centres unmarked), `CCCCOc1ccc(C(=O)C(CN2CCOCC2)c2ccccc2)cc1` (centres unmarked) is higher in “hERG current change (%, negative = inhibition) at 1uM” value: -10.9% for the first, 9.92% for the second.

Going from `Nc1nonc1-c1noc(-c2ccccc2Br)n1` to `COc1ccc(F)cc1-c1nc(N)nc(N)n1`, the “hERG current change (%, negative = inhibition) at 1uM” value rises from -13.6% to 11.2%.

Going from `Cc1cc2nc(-c3ccc(SCC(=O)N4CCN(C(=O)c5ccco5)CC4)nc3)[nH]c2cc1C` to `COc1ccc(-c2nc(CSCC(=O)N3CCN(C4CCCCC4)CC3)c(C)o2)cc1OC`, the “hERG current change (%, negative = inhibition) at 1uM” value falls from 7.95% to -14.3%.

Going from `CCCCNC(=O)c1onc(CSc2ccc(OC)cc2)c1C(=O)O` to `COc1ccc(C/C(C)=N/NC(=O)c2cc(C)oc2C)cc1`, the “hERG current change (%, negative = inhibition) at 1uM” value rises from -1.41% to 13.8%.

Going from `O=C(COC(=O)/C=C/c1ccccc1)NC(=O)NCc1ccccc1` to `C/C(Cc1ccccc1)=N\NC(=O)CNC(=O)COc1ccccc1`, the “hERG current change (%, negative = inhibition) at 1uM” value rises from 4.63% to 9.94%.

Compared with `Cc1nn(-c2ccccc2)c(N2CCCC2)c1/C=N/NC(=S)Nc1ccc(F)cc1`, `O=C(C1Cc2ccccc2CN1S(=O)(=O)c1ccc(F)cc1)N1CCCCC1` (centres unmarked) is lower in “hERG current change (%, negative = inhibition) at 1uM” value: 6.02% for the first, 0.186% for the second.

First: Cc1sc2ncnc(N3CCC(C(=O)N(C)CC(=O)Nc4ccccc4Br)CC3)c2c1C
Second: Cc1nc(N2CCN(S(=O)(=O)c3ccccc3C#N)CC2)c2c(-c3ccccc3)csc2n1
The “hERG current change (%, negative = inhibition) at 1uM” value of the first is lower: -8.93% for the first, 1.14% for the second.

Compared with `Cc1ccc(-n2nc(-c3ccccc3)cc2Nc2ccccc2N)cc1`, `Cc1ccccc1-n1c(SCc2csc(Nc3ccccc3)n2)nnc1-c1cccnc1` is lower in “hERG current change (%, negative = inhibition) at 1uM” value: 14.3% for the first, -4.16% for the second.

Going from `CS(=O)(=O)N(Cc1ccccc1)c1ccc(C(=O)NN=C2CCCCCC2)cc1` to `COc1ccc(Br)cc1S(=O)(=O)N(CC(=O)N1CCN(C)CC1)c1ccccc1`, the “hERG current change (%, negative = inhibition) at 1uM” value rises from 0.887% to 4.85%.

Going from `O=S(=O)(NCc1ccccc1F)c1cccc(S(=O)(=O)N2CCOCC2)c1` to `Cc1ccc(S(=O)(=O)N2CCN(C(C)C(=O)N3CCCc4ccccc43)CC2)cc1` (centres unmarked), the “hERG current change (%, negative = inhibition) at 1uM” value falls from 4.35% to 0.539%.

Compared with `COc1cc(-c2nnc(SCC3(c4ccc(Br)cc4)OCCO3)o2)cc(OC)c1OC`, `COc1c(C)cc(Br)cc1C(=O)Nc1cccc(-c2nc3ncccc3o2)c1` is lower in “hERG current change (%, negative = inhibition) at 1uM” value: 8.77% for the first, -7.42% for the second.

Compared with `Br.N=c1n(CCN2CCCCC2)c2ccccc2n1CC(=O)c1cccs1`, `O=C(NCCN1CCCCCC1)c1ccc(N2CCCC2=O)cc1` is lower in “hERG current change (%, negative = inhibition) at 1uM” value: 16.6% for the first, 2% for the second.

First: O=C(Nc1ccccc1N1CCN(c2ccccc2)CC1)c1ccccc1
Second: CC1Oc2ccccc2N(CC(=O)c2ccccc2)C1=O (centres unmarked)
The “hERG current change (%, negative = inhibition) at 1uM” value of the first is higher: 10.5% for the first, -0.683% for the second.

Going from `Cc1noc(C)c1S(=O)(=O)N1CCCC(C(=O)NC2CCCCC2)C1` (centres unmarked) to `CC1=C(C(=O)NC2CCCCC2C)C2(CCC(C)CC2)OC1=O` (centres unmarked), the “hERG current change (%, negative = inhibition) at 1uM” value falls from 8.61% to 2.07%.

Going from `CCCN(C(=O)C1CCN(S(=O)(=O)c2ccc(OC)c(OC)c2)CC1)C1CCS(=O)(=O)C1` (centres unmarked) to `O=C(COC(=O)c1cc(=O)[nH]c(=O)[nH]1)Nc1cccc(S(=O)(=O)N2CCCCC2)c1`, the “hERG current change (%, negative = inhibition) at 1uM” value falls from 14.2% to 9.85%.

Going from `Cc1ccc(-c2nc(N3CCOCC3)sc2C(=O)N2CCOCC2)cc1` to `CC(C)(C)c1ccc(C(=O)Nc2ccc(C(=O)N3CCOCC3)cc2)cc1`, the “hERG current change (%, negative = inhibition) at 1uM” value falls from 8.16% to 4.61%.

Compared with `CC1(c2ccccc2)NC(=O)N(CC(=O)Nc2ccccc2C(=O)NC2CC2)C1=O` (centres unmarked), `O=C(CCCN1C(=O)c2ccccc2C1=O)N1CCC(c2ccccc2)C1` (centres unmarked) is higher in “hERG current change (%, negative = inhibition) at 1uM” value: -17.8% for the first, -16.5% for the second.

Going from `Cc1cc(C)n(/N=C/c2cccc([N+](=O)[O-])c2)c(=O)c1` to `CCN(CC)S(=O)(=O)c1cccc(-c2n[nH]c(=S)n2/N=C/c2ccc(OC(F)F)cc2)c1`, the “hERG current change (%, negative = inhibition) at 1uM” value falls from 12.3% to 9.73%.

Compared with `CC(C)Oc1ccc(C(=O)N/N=C/c2ccc(-c3ccc(S(=O)(=O)Nc4ncccn4)cc3)o2)cc1`, `COC(=O)c1ccc(-c2ccc(/C=N/NC(=O)Cc3nnc(N)s3)o2)cc1` is lower in “hERG current change (%, negative = inhibition) at 1uM” value: 14.8% for the first, 11.1% for the second.

Going from `CN(CCc1cnn(C)c1)Cc1nc(Cc2ccccc2)no1` to `Cc1cccc(-c2noc(C(C)NC(=O)c3ccco3)n2)c1` (centres unmarked), the “hERG current change (%, negative = inhibition) at 1uM” value rises from 6.78% to 9.37%.

First: COc1c(C)cc(C(=O)C2CCCN(Cc3cccc(O)c3)C2)cc1C (centres unmarked)
Second: COc1cccc(CC(=S)N2CCOCC2)c1
The “hERG current change (%, negative = inhibition) at 1uM” value of the first is higher: 5.96% for the first, 2.51% for the second.

Compared with `C/C=C/CSc1nc2c(c(=O)[nH]c(=O)n2C)n1CCC`, `Cn1c(SCc2nc3ccccc3[nH]2)nnc1-c1cccs1` is lower in “hERG current change (%, negative = inhibition) at 1uM” value: -6.37% for the first, -8.39% for the second.

Compared with `COCCCNC(=O)Cn1nnc(-c2ccc(NC(=O)c3ccccc3OC)cc2)n1`, `COc1ccc(-n2ncc3c(=O)n(CC(=O)N4c5ccccc5CC4C)cnc32)cc1` (centres unmarked) is lower in “hERG current change (%, negative = inhibition) at 1uM” value: 4.37% for the first, 0.506% for the second.

First: O=C(NCC1CCCO1)c1cc2c([nH]c3ccccc32)c(-c2ccc(F)cc2)n1 (centres unmarked)
Second: O=C(NCC1CCCO1)c1cccc(F)c1 (centres unmarked)
The “hERG current change (%, negative = inhibition) at 1uM” value of the first is higher: 9.15% for the first, 8.93% for the second.

First: Cc1ccc(-n2c(SCC(N)=O)nnc2-c2ccccn2)cc1C
Second: CCOC(=O)c1c(NC(=O)CSc2nc3ccccc3c(=O)n2-c2ccc(F)cc2)sc(C(C)=O)c1C
The “hERG current change (%, negative = inhibition) at 1uM” value of the first is higher: 13% for the first, 10.3% for the second.

First: O=C(O)c1ccc(Nc2cccc(F)c2)c([N+](=O)[O-])c1
Second: Cc1ccn2cc(-c3cccc(NC(=O)c4cccs4)c3)nc2c1
The “hERG current change (%, negative = inhibition) at 1uM” value of the first is higher: 22.2% for the first, -2.71% for the second.

Compared with `CCOCCCNS(=O)(=O)c1ccc(Br)cc1`, `Cc1ccc(S(=O)(=O)CCSc2nccn2C)cc1` is lower in “hERG current change (%, negative = inhibition) at 1uM” value: 9.76% for the first, 2.46% for the second.

Compared with `COc1cc(C)c(S(=O)(=O)N2CCOCC2)cc1C(C)C`, `COc1cccc(C(O)c2cnc(C(C)C)n2C)c1` (centres unmarked) is higher in “hERG current change (%, negative = inhibition) at 1uM” value: 7.69% for the first, 9.67% for the second.

Going from `Cc1nccc2c1[nH]c1ccccc12` to `Cc1cccc2c(=O)c(C(=O)NCc3cccs3)c[nH]c12`, the “hERG current change (%, negative = inhibition) at 1uM” value rises from 10.2% to 17.3%.

Compared with `CCNc1nc(-c2ccc(Cl)cc2)cs1`, `O=C(Nc1cccnc1)c1scc2c1OCCO2` is lower in “hERG current change (%, negative = inhibition) at 1uM” value: 15.6% for the first, 11.7% for the second.

Going from `CCOC(=O)c1cccc(S(=O)(=O)N(CCO)Cc2cc3cc(OC)ccc3[nH]c2=O)c1` to `CCCS(=O)(=O)C/C(N)=N/OC(=O)c1ccccc1Cl`, the “hERG current change (%, negative = inhibition) at 1uM” value rises from 4.92% to 10.2%.

Compared with `COc1ccnc(CS(=O)c2nc3cc(OC(F)F)ccc3[n-]2)c1OC.[Na+]` (centres unmarked), `Cc1nc(C(F)(F)F)nc(Nc2ccc(Br)cc2)c1C#N` is higher in “hERG current change (%, negative = inhibition) at 1uM” value: -22.2% for the first, 13.1% for the second.

Going from `CCCN1CCN(C(=O)CN2C(=O)CC(C)(C)S(=O)(=O)c3ccccc32)CC1` to `CCCCC(=O)Nc1ccc(NC(=O)C2CC2)nc1`, the “hERG current change (%, negative = inhibition) at 1uM” value falls from 14.5% to 8.39%.

Compared with `Clc1cccc(Cl)c1Cn1cnc2c(N3CCCCCC3)ncnc21`, `Cc1c(OCc2ccc([N+](=O)[O-])cc2)ccc2c3c(c(=O)oc12)CCC3` is lower in “hERG current change (%, negative = inhibition) at 1uM” value: 3.81% for the first, 3.74% for the second.

First: CC1=Nc2ccc(Br)cc2C(c2ccccc2)N1CC(=O)NN (centres unmarked)
Second: O=C(O)CC(NC(=O)C(c1ccccc1)c1ccccc1)c1ccco1 (centres unmarked)
The “hERG current change (%, negative = inhibition) at 1uM” value of the first is lower: 7.63% for the first, 14.6% for the second.

With `C/C(=N\O)C1CC(CC(=O)O)C1(C)C` (centres unmarked) the “hERG current change (%, negative = inhibition) at 1uM” value was 7.56%.
